For 24 compounds, activation results are on record in PubChem BioAssay AID1346428 (National Center for Advancing Translational Sciences (NCATS), 2018).

Structures are written as SMILES. The campaign covered roughly 48,000 compounds. About 1,200 (2.5%) were called active. Another 2% or so got no clear call; they are omitted.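 How the source made its calls: active means activation of at least 60% and not above a set upper limit (about 1 call in 100 departs from these limits); inconclusive means activation of 40% to 60%, or above that upper limit; inactive means activation under 40%.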 This is one part of the list.

Sequence of UniProt O75388 (O75388 whole entry, looked up): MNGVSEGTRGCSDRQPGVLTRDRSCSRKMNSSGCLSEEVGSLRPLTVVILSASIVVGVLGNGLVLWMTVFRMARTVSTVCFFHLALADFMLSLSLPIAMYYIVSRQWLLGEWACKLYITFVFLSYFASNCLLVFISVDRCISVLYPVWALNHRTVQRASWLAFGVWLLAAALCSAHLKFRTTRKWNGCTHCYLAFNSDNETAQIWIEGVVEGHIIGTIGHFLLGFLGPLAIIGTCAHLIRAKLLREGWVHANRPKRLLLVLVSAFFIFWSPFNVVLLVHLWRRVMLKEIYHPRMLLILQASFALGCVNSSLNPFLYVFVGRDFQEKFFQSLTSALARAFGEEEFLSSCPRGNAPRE

This test concerns the target Probable G-protein coupled receptor 32 (Homo sapiens) (UniProt O75388). Briefly: qHTS for Agonists of Human Resolvin D1 Receptor DRV1. Further: 0% is about no effect. The settings on record: CHO-K1 GPR32 beta-arrestin PathHunter luminescence, 90 min; at 76.9 µM; stronger effect = higher value; zero percent set by DMSO-only wells. The gist of the method:
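Engineered CHO-K1 line co-expressing GPR32-ProLink and EA-beta-arrestin. Compound treatment lasted 90 min at 37 °C. Luminescence was recorded after 1 h with substrate at ambient temperature, relative to DMSO basal wells.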
In the case of `CCN(Cc1ccccc1)C(=O)CN1C(=O)COc2ccc(S(=O)(=O)N3CCOCC3)cc21`, the activation is inactive: -36.6%.
As for `CCN(c1ccc(C)cc1C)S(=O)(=O)c1nnc(NC(=O)c2ccc(F)cc2)s1`, the activation was inactive: 8.52%.
`COc1cccc(-c2cc(C(=O)Nc3ccc(OC)cc3OC)no2)c1`: the activation is inactive: 9.64%.
To `Cc1ccc2oc(=O)c(-c3nc(-c4cccs4)no3)cc2c1` belongs inactive: -8.88%; to `COC(=O)c1ccccc1NC(=O)Cc1nc(-c2ccc(OC)cc2)no1`, inactive: -6.02%.
Turning to `COc1ccc(-n2cnc3cc(C(=O)NCCC4=CCCCC4)ccc32)cc1`, the activation was inactive: 8.56%.
As to `Cc1nn(CCC(=O)Nc2cccc(C#N)c2)c(C)c1S(=O)(=O)N1CCC(C)CC1`, the activation was inactive: -0.851%.
As for `Cc1ccc(NC(=O)C2CCCN2S(=O)(=O)c2ccc3c(c2)n(C)c(=O)c(=O)n3C)cc1` (centres undefined), the activation is inactive: -9.16%.
Regarding `CCOCCCNC(=O)CCC(=O)NNc1nc2ccccc2c2nc(C)nn12`, the activation was inactive: -6.99%.
With `Cc1nc2nc(SCC(=O)NCCc3ccc(Cl)cc3)nn2c(C)c1Cc1c(F)cccc1Cl`, the activation is inactive: -10.8%.
`O=C(Nc1cccc(C(=O)OCc2cc(=O)n3ccsc3n2)c1)c1ccc(F)cc1`: the activation is inactive: 9.53%.
To `COc1ccc(OC)c(NC(=O)CN(c2ccccc2OC)S(=O)(=O)c2ccc(C)cc2)c1` belongs inactive: 33.2%; to `Cc1csc2nc(COC(=O)c3ccc(NC(=O)c4ccccc4Br)cc3)cc(=O)n12`, inactive: -4.74%.
Take `Cc1nn(CC(=O)NCc2ccco2)c(=O)c2nn(-c3ccccc3)c(C)c12`: the activation was inactive: 5.54%.
Regarding `CC(=O)N1CCc2cc(CNS(=O)(=O)c3ccccc3C(F)(F)F)ccc21`, the activation is inactive: -4.67%.
`CC(=O)Nc1ccc(NC(=O)c2c(-c3ccccc3)noc2C)cc1`: the activation was inactive: -0.0194%.
As to `O=C(O)c1ccc(CSc2nc3cccnc3n2Cc2cccc(F)c2)cc1`, the activation is inactive: -6.86%.
As to `Cc1cc(C)cc(NC(=O)Cn2c(C)cc(C)c(C#N)c2=O)c1`, the activation is inactive: 1.67%.
For `O=C(CSc1nc2ccccc2n1Cc1cccc(C(F)(F)F)c1)NCc1ccccc1`, the activation is inactive: -17.4%.
`CCOc1cccc(C2Oc3nc(SC)nnc3-c3ccccc3N2C(C)=O)c1OC` (centres undefined): the activation is inactive: -2.81%.
Next, `COC(=O)CC1Oc2ccc(Cl)cc2-n2cc(-c3ccc(C)cc3)nc21` (centres undefined): inactive: -1.15%; `Nc1ncc(S(=O)(=O)N2CCN(c3ccccc3)CC2)cn1`: inactive: -7.93%; `COc1ccc(Cl)cc1NC(=O)c1oc2ccc(S(=O)(=O)N3CCCCC3)cc2c1C`: inactive: -7.13%.
To `COc1ccc(N2CCN(C(=O)c3ccc(CS(=O)c4cccc(C)c4)o3)CC2)cc1` (centres undefined) belongs inactive: -16%.
